Test results as given in the supplement of paper PMC11417369.
± gives the standard deviation of the averaged measurements. The list shows a part of the results.

Each sequence was assayed on PfAP2-EXP AP2 domain (GST-tagged) (assay: gcPBM binding intensity (ln(normalized median fluorescence intensity)); higher = stronger DNA binding).
Method in brief: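 In this array assay, P. falciparum DNA-binding domains with a GST tag, expressed in E. coli, were applied for 1 h to primer-extended double-stranded 36-bp intergenic genomic probes and negative controls on an Agilent 4 × 180k array. Bound protein was visualised with Alexa488 anti-GST antibody at 488 nm. Binding intensity is the highest Masliner-normalised natural-log median intensity across replicate spots of either probe orientation.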

| Sequence | gcPBM binding intensity (ln) |
| --- | --- |
| ACAAAAAAATAAGGTGCACACAAAAAAAAAAAAAAA [CACACA_site8171] | 9.02 ± 0.11 |
| ATATAGCATATAATTTGTACACAGGCCATACCTGAA [XGTACX_site533] | 8.48 ± 0.38 |
| TTTTTTTTTTTTTGATGTACTTATTTAATAAGATAT [XGTACX_site376] | 8.43 ± 0.45 |
| TATATGGCATATTTCACACACACATAATGAATATTA [CACACA_site9181] | 8.46 ± 0.51 |
| GAGTTCAGTTTTTGTTGTACTTATTCTTAATATGTC [XGTACX_site6083] | 8.68 ± 0.3 |
| ATCCAAAAAATTAATGCATGCGCAAAAAATAGCTTA [TGCATGCA_site615] | 8.74 ± 0.47 |
| TGTCCTTATTTGCACACACACATATAAGAAATTTAA [CACACA_site7485] | 8.97 ± 0.29 |
| AAAAAAAAAACATACACACACATATATATATATATG [CACACA_site1586] | 8.64 ± 0.32 |
| TTTGTTTTATCTTATATGCACACGATAAAAAAAAAA [CACACA_site2673] | 8.48 ± 0.3 |
| ATTATATGTAACACGTGTACCTATTTATGTATGCTT [XGTACX_site5748] | 8.87 ± 0.33 |
| GATATATAAACATATACACACAAAAACATATTTATA [CACACA_site6734] | 8.49 ± 0.41 |
| AATATACAAAATATCACACATATAAAATAATATATA [CACACA_site6067] | 8.27 ± 0.5 |
| AAATAATATGTAATCAAATTCACCAAACGAAAAAAA [TGCATGCA_negctrl_site33] | 8.62 ± 0.5 |
| AATGGTTCAACGTAGTGTACGTAATAAATAATAAAT [XGTACX_site8668] | 8.8 ± 0.31 |
| TGATAATTTCATTTTGCATGTGACAATACAAGATGT [TGCATGCA_site203] | 8.59 ± 0.18 |
| TAAAATAAATTGTGCACACATATTTATAAATATGAA [CACACA_site2331] | 8.91 ± 0.34 |
| ATGGACTTTTATAGTTGTACATACTATGAGAACTTT [XGTACX_site2800] | 8.69 ± 0.71 |
| TACATATAAAAGTACACACACACACCCATATATATA [CACACA_site941] | 8.93 ± 0.32 |
| GTTTATCACAGCCACGCACACATAATATATGTATAT [CACACA_site3669] | 8.8 ± 0.5 |
| TATTGCCCGAAACACACACACATATATATATATATA [CACACA_site2491] | 10.3 ± 0.2 |
| TATAATATTTACGACAGTACATATATATATATGTAT [XGTACX_site8332] | 8.51 ± 0.4 |
| AAATAATTTGTTGACACACACACACCCATACATATA [CACACA_site2285] | 8.9 ± 0.69 |
| ATCTGTCGACAGGACAGTACACAGTAGCCAGGAAAT [XGTACX_site1994] | 9.03 ± 0.67 |

| Sequence | gcPBM binding intensity (ln) |
| --- | --- |
| TATATATATATATATATATATATGTATGTGCATTTA [TGCATGCA_negctrl_site53] | 10.1 ± 0.69 |
| ATTTAGAAAAATAAAACACACATATATATGTAAATA [CACACA_site4113] | 8.66 ± 0.48 |
| ATATAAAAATGTAAGGGTACATAATAAATAATCAAA [XGTACX_site5217] | 8.66 ± 0.34 |
| AAAAAATATTAATATAGTACTTTATATTTATAAGTA [XGTACX_site6895] | 8.46 ± 0.6 |
| GGAAAAAATATATGCACACCCCCCAAAAAAAAAAAA [CACACA_site2222] | 10.95 ± 0.099 |
| TTTTTGTTATTTTTAGTGCACATTTAAGGGTGTATT | 9.13 ± 0.014 |
| TATATCTTACTTTTTGCACACACTAATATTATTGTT [CACACA_site1640] | 9.03 ± 0.38 |
| ACAAAATTTACAAAATGTACAAAATTTACAAAATGT [XGTACX_site6464] | 8.37 ± 0.4 |
| GAAGGAAAAACAGAATGTACATAAATAAACGTATAT [XGTACX_site753] | 9.15 ± 0.73 |
| AATACGGCAAACATTAAAAAATATAATAACAATAAA [CACACA_negctrl_site868] | 8.66 ± 0.33 |
| TAAGGATGAATCCTTTGTACATATATATATATATAT [XGTACX_site1242] | 10.2 ± 0.28 |
| TGAAAAGAAAACACATGTACAAATATATAAATATAA [XGTACX_site6098] | 8.71 ± 0.44 |
| GTTATACATTTTGATTGTACATAAACCATTTGAGCA [XGTACX_site7283] | 8.62 ± 0.31 |
| TTTTTTTAAATATACACACACATTTATACATATATA [CACACA_site3400] | 8.51 ± 0.39 |
| TTTAACGTTGAATATACACACATATATATATATATA [CACACA_site3698] | 10.2 ± 0.44 |
| ATATATTTTTGTAGTGTGCACGTTTATATGGTGAAA | 9.48 ± 0.35 |
| TATAAACATATCATATGTACATATATTTTTATAAAA [XGTACX_site8882] | 8.42 ± 0.35 |
| AAGAAAAAATAAAAAATAAAAATAAAAAATAAAAAA [TGCATGCA_negctrl_site274] | 8.35 ± 0.3 |
| TTAAATATAATATTATGTACTAAATATTTTTTTATT [XGTACX_site6121] | 8.09 ± 0.37 |
| TTTCTTTTTAAATAGGTGCATATTTTTATAAATATA | 9.03 ± 0.45 |
| CAAGAAATTTACAAACGTACATATGTTCATACAAGG [XGTACX_site2372] | 8.79 ± 0.37 |
| TTAGAGAAACAAAATTGTACATTATAAATTTGCCTT [XGTACX_site440] | 8.34 ± 0.34 |
| TATTTGAAAGCCAATTGTACTTTAGTTTTTGAAACA [XGTACX_site5542] | 8.3 ± 0.37 |

| Sequence | gcPBM binding intensity (ln) |
| --- | --- |
| CTATTTCAGAAACACACACACACAAACAAACATATA [CACACA_site978] | 8.73 ± 0.66 |
| ATATATTTACATATTACACACAATATTGTACACATA [CACACA_site6564] | 8.83 ± 0.47 |
| TTTATATATATTCTCACACACTTTTTATTTTAACAA [CACACA_site4534] | 8.62 ± 0.38 |
| AAAAATATTTATAACACACACATAATATTTATATAT [CACACA_site7238] | 8.53 ± 0.44 |
| ATAAATTTCCTCGTTTTTTTTTTTTTTTTTTTTTTT [CACACA_negctrl_site1173] | 9.01 ± 0.19 |
| TATGTCAAAAAATAATGTACAAAAAAATTAACATAA [XGTACX_site5463] | 8.5 ± 0.38 |
| CTATAATATAGGTATACACACATATTATAGAATATT [CACACA_site7696] | 8.42 ± 0.48 |
| ATATAAAATAGACACGCACACAAAAAAAAAAAAAAA [CACACA_site3522] | 8.38 ± 0.51 |
| TATATATGGAAAAGGTGTACATTCAATATATATATA [XGTACX_site3167] | 9.75 ± 0.31 |
| TTTATTTTGTAGTGTACACATATATATATATATATA [CACACA_site5843] | 10.3 ± 0.36 |
| TGAGTATTTTTTTAATGTACTTATATTAAAAGGAAA [XGTACX_site6286] | 8.405 ± 0.035 |
| TATATTTTTTTTCTAGTGCATATTATTAATTAAGTT | 8.81 ± 0.18 |
| TACAAAATAAGACATGCATGTTATACATATATATTT [TGCATGCA_site321] | 9.24 ± 0.35 |
| AAAATATTATTTTGTTGTACATATAAAATTTTAAGC [XGTACX_site1866] | 8.72 ± 0.47 |
| AAACAAAAAAGAAACACACACTAATTAAATTTTCTT [CACACA_site4746] | 8.32 ± 0.57 |
| TACAATACCGTACAGGTGCAACTAGCCAAAAAAAAG | 8.96 ± 0.44 |
| TAAATTAATAAAAAGTGTACATAATATACATATATA [XGTACX_site8604] | 8.62 ± 0.33 |
| TTTAATAATATTTAGGTGCTATATATTATATGTATA | 8.32 ± 0.21 |
| ATAATTAAAAAAGGAATATATATATATATATATATA [GTGCAC_negctrl_site343] | 10.1 ± 0.46 |
| CGTATGACATAATATTGTACTTTTGATATACATCAT [XGTACX_site7366] | 8.52 ± 0.35 |
| ATAAATCATAAGGAGAGTACATAAATAAAATAATCA [XGTACX_site8825] | 8.8 ± 0.49 |
| AAGTGGCATATAAGTAAAAAATATATACAAGTATAT [GTGCAC_negctrl_site427] | 8.49 ± 0.27 |
| TATTAAAGATACTCGGTATAAATAAATTTTAATGTG [XGTACX_negctrl_site239] | 8.34 ± 0.49 |

| Sequence | gcPBM binding intensity (ln) |
| --- | --- |
| CTCAATATATTTGATTTACACACTTACAATGTATAT [CACACA_site8982] | 8.69 ± 0.35 |
| TTATTTCTACCTTTTTGTACACATTATTATGAAACC [XGTACX_site5325] | 9.14 ± 0.49 |
| TATAAAAAATATAATTGTACATAAAGGTTAAAATGT [XGTACX_site6138] | 8.91 ± 0.35 |
| ACAACATGCACACGCACACACAAAAAAAGCATGCAT [CACACA_site6185] | 9.47 ± 0.057 |
| ATGCTTATTATTTATTGTACTGAATAAATATATCTG [XGTACX_site4483] | 8.5 ± 0.24 |
| TATTAACACTTTATAGAAACAAAAAAATAAGCAAAA [XGTACX_negctrl_site295] | 8.53 ± 0.3 |
| TTTGAATTTTTTAACACACACATGTGTGGATATATA [CACACA_site6872] | 8.56 ± 0.35 |
| TGGGTAATACATAATACACACATGTATATGTCGCAT [CACACA_site1125] | 8.46 ± 0.35 |
| AGTATATATACACAAGGGGAATACATATACAAAATT [TGCATGCA_negctrl_site244] | 8.89 ± 0.39 |
| AAATTTATATAATATTGTACATTAAAAATTATATAT [XGTACX_site8009] | 8.21 ± 0.25 |
| TTTTTAAAAAAGATAAGCGAAAGAATTAATTTTTAA [GTGCAC_negctrl_site197] | 8.48 ± 0.43 |
| TATGTATAAATATATGCACACATATATATATTTATA [CACACA_site9150] | 8.42 ± 0.18 |
| ATATATATAATAAACACACACATATACATATATGTA [CACACA_site3462] | 8.61 ± 0.23 |
| AAGTTGTATATTGATTGTACTTGTTTAGGGTTATAG [XGTACX_site2953] | 8.64 ± 0.42 |
| TATATATATATAATGTGTACACAAATATATATTATA [XGTACX_site8786] | 9.74 ± 0.23 |
| AGGTAAAATATACATTGTACATATAATTAATTTATT [XGTACX_site626] | 8.47 ± 0.4 |
| ACATACTTTAATATATGTACATAAGAAAAAAAAAAA [XGTACX_site2991] | 8.69 ± 0.35 |
| AATATAAATTAATTTACACACTAAAAAATATTTATA [CACACA_site7728] | 8.27 ± 0.41 |
| TATTTTTTATATTTATTTATTTAAAGGAGCTTTTCT [GTGCAC_negctrl_site293] | 8.16 ± 0.33 |
| TATAAGAATGACAAGTGTACATATCAAATATATTAG [XGTACX_site7113] | 8.52 ± 0.43 |
| TATACTAAAAAATACACATGCACATACAATATATAT [TGCATGCA_site1016] | 9.12 ± 0.28 |
